Laboratory results from patent US20240076343A1 (CEPHALON, published 2024).
Substitutions are numbered along the chain they refer to. Names may count otherwise. Values belong to the binder of their own block, whether it stands above or below them.

Key:
[1] = target: T1, human PD-1 (amino acids 1-185) on transfected Jurkat cells (human, UniProt Q15116 part only); assay: flow cytometry, Jurkat+hPD-1 cells
T1 construct: also called hPD-1; Jurkat+hPD-1 cell line

[2] = target: T2, human PD-1 on Jurkat cells (Jurkat+hPD-1) (human, UniProt Q15116 part only); assay: flow cytometry on Jurkat cells expressing hPD-1
T2 construct: extracellular domain and a portion of the transmembrane domain, stably expressed on Jurkat cells

[3] = target: T1, human PD-1 (amino acids 1-185) on …; assay: flow cytometry on Jurkat cells expressing hPD-1; no competitor
[4] = target: T1, human PD-1 (amino acids 1-185) on …; assay: flow cytometry on Jurkat cells expressing hPD-1; cells pre-incubated with 10 µM anti-hPD-1 #1-mIgG2b-N297A
[5] = target: T1, human PD-1 (amino acids 1-185) on …; assay: flow cytometry on Jurkat cells expressing hPD-1; cells pre-incubated with 10 µM anti-hPD-1 #2-mIgG2b-N297A

B1: OMC.1.B6-hIgG4-L6-hIL-2 (D20A/R38E) (other)
heavy: EVQLLESGGGLVQPGGSLRLSCAASGFTFSSNYMSWVRQAPGKGLEWVSAISSSGGTIFYADSVKGRFTISRDNSKNTLYLQMNSLRAEDTAVYYCAKHKWNAVYYDGMDVWGQGTTVTVSSASTKGPSVFPLAPCSRSTSESTAALGCLVKDYFPEPVTVSWNSGALTSGVHTFPAVLQSSGLYSLSSVVTVPSSSLGTKTYTCNVDHKPSNTKVDKRV[not shown - about 350 residues with a human IgG4 Fc]
light: QSVLTQPPSASGTPGQRVTISCSGSNSNIGRNLVNWYQQLPGTAPKLLIYTIDQRPSGVPDRFSGSKSGTSASLVISGLQSEDEADYYCAAWDGSLNAWVFGGGTKLTVLGQPKAAPSVTLFPPSSEELQANKATLVCLISDFYPGAVTVAWKADSSPVKAGVETTTPSKQSNNKYAASSYLSLTPEQWKSHRSYSCQVTHEGSTVEKTVAPTECS
fold increase in EC50 against the anti-hPD-1 antibody without the attenuated hIL-2 moiety [1]: < 2 fold

B2: OMC.1.B6-hIgG4-L6-hIL-2 (D20A/R38E) (other)
heavy: EVQLLESGGGLVQPGGSLRLSCAASGFTFSSNYMSWVRQAPGKGLEWVSAISSSGGTIFYADSVKGRFTISRDNSKNTLYLQMNSLRAEDTAVYYCAKHKWNAVYYDGMDVWGQGTTVTVSSASTKGPSVFPLAPCSRSTSESTAALGCLVKDYFPEPVTVSWNSGALTSGVHTFPAVLQSSGLYSLSSVVTVPSSSLGTKTYTCNVDHKPSNTKVDKRV[not shown - about 350 residues with a human IgG4 Fc]
light: B1 light
notes: anti-hPD-1 IgG4 with attenuated hIL-2 fused to the heavy chain C-terminus
EC50 [2]: 5.63 nM

B5: A2-hIgG4-df-hIL-2 (D20A/R38E) (other)
heavy: DVQLVESGGGLVQPGGSLRLSCAASGFTFDISAMSWVRQAPGKGLEWVSTISGSAYSTYYADSVKGRFTISRDNSKSTLYLQMNSLRAEDTAVYYCAREIFSDYWGLGTLVTVSSASTKGPSVFPLAPCSRSTSESTAALGCLVKDYFPEPVTVSWNSGALTSGVHTFPAVLQSSGLYSLSSVVTVPSSSLGTKTYTCNVDHKPSNTKVDKRV[not shown - about 350 residues with a human IgG4 Fc and changes]
light: QSVLTQPPSASGTPGQRVTISCSGSTSNIGRESVYWYQQLPGTAPKLLIYSNVQRPSGAPNRFSGSKSGTSASLAISGLQSEDEADYYCGTWDDSLNGWVFGGGTKLTVLGQPKAAPSVTLFPPSSEELQANKATLVCLISDFYPGAVTVAWKADSSPVKAGVETTTPSKQSNNKYAASSYLSLTPEQWKSHRSYSCQVTHEGSTVEKTVAPTECS
EC50 (read off the curve) [3]: ~6 nM
fold increase in EC50 against the anti-hPD-1 antibody without the attenuated hIL-2 moiety [1]: < 2 fold
EC50 (read off the curve) [4]: ~7 nM
EC50 (read off the curve) [5]: ~10 nM

B6: A2-hIgG4-df-hIL-2 (D20A/R38E) (other)
heavy: DVQLVESGGGLVQPGGSLRLSCAASGFTFDISAMSWVRQAPGKGLEWVSTISGSAYSTYYADSVKGRFTISRDNSKSTLYLQMNSLRAEDTAVYYCAREIFSDYWGLGTLVTVSSASTKGPSVFPLAPCSRSTSESTAALGCLVKDYFPEPVTVSWNSGALTSGVHTFPAVLQSSGLYSLSSVVTVPSSSLGTKTYTCNVDHKPSNTKVDKRV[not shown - about 350 residues with a human IgG4 Fc and changes]
light: B5 light
notes: as for B2
EC50 [2]: 10.7 nM

B7: G12-hIgG4-df-hIL-2 (D20A/R38E) (other)
heavy: DSLVESGGGLVQPGGSLRLSCAASGFTFDISAMSWVRQAPGKGLEWVSTISGSAYSTYYADSVKGRFTISRDNSKSTLYLQMNSLRAEDTAVYYCAREIFSDYWGLGTLVTVSSASTKGPSVFPLAPCSRSTSESTAALGCLVKDYFPEPVTVSWNSGALTSGVHTFPAVLQSSGLYSLSSVVTVPSSSLGTKTYTCNVDHKPSNTKVDKRV[not shown - about 350 residues with a human IgG4 Fc]
light: B5 light with S51L, V53S, A59V, N61D, E84V
fold increase in EC50 against the anti-hPD-1 antibody without the attenuated hIL-2 moiety [1]: < 2 fold

B8: G12-hIgG4-df-hIL-2 (D20A/R38E) (other)
heavy: DSLVESGGGLVQPGGSLRLSCAASGFTFDISAMSWVRQAPGKGLEWVSTISGSAYSTYYADSVKGRFTISRDNSKSTLYLQMNSLRAEDTAVYYCAREIFSDYWGLGTLVTVSSASTKGPSVFPLAPCSRSTSESTAALGCLVKDYFPEPVTVSWNSGALTSGVHTFPAVLQSSGLYSLSSVVTVPSSSLGTKTYTCNVDHKPSNTKVDKRV[not shown - about 350 residues with a human IgG4 Fc]
light: B5 light with S51L, V53S, A59V, N61D, E84V
notes: as for B2
EC50 [2]: 7.58 nM

The remaining lines, values ahead:

fold increase in EC50 against the anti-hPD-1 antibody without the attenuated hIL-2 moiety [1]: < 2 fold
B3: OMC.1.D6-hIgG4-L6-hIL-2 (D20A/R38E) (other)
heavy: EVQLLESGGGLVQPGGSLRLSCAASGFTFSDYYMSWVRQAPGKGLEWVSAISSSGGTIFYADSVKGRFIISRDNSKNTLYLQMNSLRAEDTAVYYCAKHKWNDVYYDAMDVWGQGTTVTVSSASTKGPSVFPLAPCSRSTSESTAALGCLVKDYFPEPVTVSWNSGALTSGVHTFPAVLQSSGLYSLSSVVTVPSSSLGTKTYTCNVDHKPSNTKVDKRV[not shown - about 350 residues with a human IgG4 Fc]
light: B1 light with I52V, V75A, Q80A, G94S, A98S

EC50 [2]: 8.87 nM
B4: OMC.1.D6-hIgG4-L6-hIL-2 (D20A/R38E) (other)
heavy: EVQLLESGGGLVQPGGSLRLSCAASGFTFSDYYMSWVRQAPGKGLEWVSAISSSGGTIFYADSVKGRFIISRDNSKNTLYLQMNSLRAEDTAVYYCAKHKWNDVYYDAMDVWGQGTTVTVSSASTKGPSVFPLAPCSRSTSESTAALGCLVKDYFPEPVTVSWNSGALTSGVHTFPAVLQSSGLYSLSSVVTVPSSSLGTKTYTCNVDHKPSNTKVDKRV[not shown - about 350 residues with a human IgG4 Fc]
light: B1 light with I52V, V75A, Q80A, G94S, A98S
notes: as for B2

EC50 [2]: 17.1 nM
B9: D12-hIgG4-df-hIL-2 (D20A/R38E) (other)
heavy: DVQLVESGGGLVQPGGSLRLSCAASGFTFDISAMSWVRQAPGKGLEWVSTISGSAYSTYYADSVKGRFTISRDNSKSTLYLQMNSLRAEDTAVYYCAREIFSDYWGLGTLVTVSSASTKGPSVFPLAPCSRSTSESTAALGCLVKDYFPEPVTVSWNSGALTSGVHTFPAVLQSSGLYSLSSVVTVPSSSLGTKTYTCNVDHKPSNTKVDKRV[not shown - about 350 residues with a human IgG4 Fc]
light: B5 light with S25N, A59V, N61D
notes: as for B2

fold increase in EC50 against the anti-hPD-1 antibody without the attenuated hIL-2 moiety [1]: < 2 fold
B10: D12-hIgG4-df-hIL-2 (D20A/R38E) (other)
heavy: DVQLVESGGGLVQPGGSLRLSCAASGFTFDISAMSWVRQAPGKGLEWVSTISGSAYSTYYADSVKGRFTISRDNSKSTLYLQMNSLRAEDTAVYYCAREIFSDYWGLGTLVTVSSASTKGPSVFPLAPCSRSTSESTAALGCLVKDYFPEPVTVSWNSGALTSGVHTFPAVLQSSGLYSLSSVVTVPSSSLGTKTYTCNVDHKPSNTKVDKRV[not shown - about 350 residues with a human IgG4 Fc]
light: B5 light with S25N, A59V, N61D
